# Results taken from the supplement of paper PMC3724861.
# The other results are listed elsewhere or left out.
# Tested on: T1, Caupolican (Caup) homeodomain DNA-binding domain
# T1 sequence: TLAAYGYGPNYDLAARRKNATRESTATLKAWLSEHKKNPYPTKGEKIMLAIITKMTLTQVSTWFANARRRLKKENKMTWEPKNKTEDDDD
# Test: PBM E-score (8-mer, recovered from the published 9-mer minima) (E-score (dimensionless, -0.5 to 0.5)); Drosophila protein; higher = stronger relative binding preference, active = 0.31 or more
# Method in brief: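 Caup's homeodomain DNA-binding domain (residues 214-303) was produced by in vitro transcription and translation and applied at 100 nM to custom-designed protein binding microarrays. Each value is an enrichment score giving relative binding preference for a short DNA word; higher means stronger. Published 9-mer scores were the minimum of their two constituent 8-mer scores, and the 8-mer values were recovered from those minima. A cutoff of 0.31 marks candidate binding sequences.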
row,Sequence,PBM E-score
1,GGATTAGA,inactive: -0.0283
2,CACTACGA,inactive: 0.0511
3,GAAGCTGA,inactive: -0.0436
4,GCACCGAC,inactive: -0.014
5,AGTTTTTG,≥ 0.122
6,GATTTACA,inactive: 0.246
7,CATAATGC,inactive: 0.0196
8,CACTGTAC,inactive: 0.055
9,ACGTTGCT,inactive: 0.0384
10,GAACGACA,inactive: 0.217
11,GCCTCCCA,inactive: -0.246
12,GGCAGGAC,inactive: -0.136
13,CCGTACCA,inactive: -0.0768
14,CGTTACCA,inactive: 0.17
15,CTTATTTC,inactive: 0.132
16,ATTACTTA,inactive: 0.164
17,CTAAAGAG,inactive: -0.0699
18,CTAGACGC,inactive: -0.109
19,CCCCGACG,inactive: -0.152
20,CATAGCAC,inactive: 0.225
21,CGGTGACA,inactive: 0.223
22,AACATGTG,active: 0.402
23,CTAAACAG,inactive: 0.0191
24,AACCCGCG,inactive: -0.0635
25,CATCACTA,inactive: 0.208

row,Sequence,PBM E-score
1,GAATCATA,inactive: 0.136
2,AAAAGTGC,inactive: -0.0227
3,CCGGTTTA,inactive: -0.0443
4,AGGCCAGA,inactive: -0.105
5,CATTTAAA,inactive: 0.135
6,CCACCGGG,inactive: -0.284
7,GTCATAAC,inactive: 0.172
8,ACAGGCCC,inactive: -0.136
9,AACTAAAT,inactive: 0.0946
10,AATCACCA,inactive: 0.105
11,CCACTTTC,inactive: -0.0779
12,TCGTGCCA,≥ -0.0298
13,AGTGGCGG,inactive: -0.19
14,CGAACCGA,inactive: -0.0372
15,TAGCTCCA,inactive: -0.0294
16,CAGCCCAA,inactive: -0.0743
17,CCCACTGC,inactive: -0.194
18,GGCCACGA,inactive: -0.203
19,CGAATGGC,inactive: -0.138
20,TCGGCCAA,inactive: -0.102
21,CAGGGACG,inactive: -0.0563
22,AGATACGA,inactive: 0.122
23,ATGGGCTG,inactive: -0.0443
24,CACTAGCA,inactive: 0.111
25,GTAACGAC,inactive: 0.0908

row,Sequence,PBM E-score
1,TACCAAAA,inactive: 0.104
2,CATTCTTC,inactive: 0.0867
3,ATTACGAG,inactive: 0.171
4,CCGGTCCC,inactive: -0.268
5,CTCTTAGA,inactive: -0.0856
6,AGAAAAAC,inactive: 0.0686
7,TCGTCACA,≥ 0.089
8,CCATCCCC,inactive: -0.241
9,ACATCATA,active: 0.318
10,CACATGCG,inactive: 0.023
11,AGCGTGGG,inactive: -0.256
12,AATTAGCC,inactive: -0.0208
13,AGATTATG,inactive: 0.0903
14,ACGGTTTG,inactive: -0.0137
15,AACTTGCA,inactive: 0.102
16,GCCCCTGA,inactive: -0.167
17,CCGTGAAA,inactive: -0.0526
18,CTTTACTA,inactive: 0.109
19,CGGGATCC,inactive: -0.132
20,ATAAGTAA,inactive: 0.143
21,CCTCTTCA,inactive: -0.0999
22,GTGAGCCA,≥ -0.0599
23,CAATGGAA,inactive: -0.0452
24,ATAAATAA,≥ 0.221
25,CTAGGCAC,inactive: -0.0927

row,Sequence,PBM E-score
1,GTACCTCA,inactive: 0.136
2,CTCGCGAA,inactive: -0.0996
3,AAAGGAAG,inactive: -0.0802
4,GCCTGATA,inactive: -0.0429
5,AGCATCAT,inactive: 0.146
6,ACATACCG,inactive: 0.127
7,GACCACTC,inactive: -0.0383
8,AGCTCGCA,inactive: -0.169
9,AACTCGCT,inactive: -0.0482
10,TACGATAA,inactive: 0.149
11,CAAATTTC,inactive: 0.0393
12,GAGCCAGA,inactive: -0.0571
13,ACAGTCTG,inactive: 0.0152
14,GAGAGCCC,inactive: -0.275
15,GATTTGAA,inactive: 0.171
16,CCGTCAAA,inactive: -0.0594
17,CGGATAGC,inactive: -0.0897
18,TCGCCCGA,inactive: -0.118
19,ACTAAGGA,inactive: -0.0534
20,TACTCAGA,inactive: 0.00964
21,ACATCGAT,inactive: 0.269
22,ATTAGAGC,inactive: 0.0699
23,GGAAATTA,inactive: 0.145
24,CTCAGTCA,inactive: -0.00826
25,AGCTGGTA,inactive: -0.0349

row,Sequence,PBM E-score
1,GACACGCC,inactive: 0.148
2,GTGGAGGA,inactive: -0.108
3,CTGACTGC,inactive: -0.0466
4,ACGGGCGG,inactive: -0.266
5,ATCCGTCA,inactive: -0.0102
6,AAGTTTCT,inactive: 0.00308
7,ATTTCCTA,≥ 0.128
8,TCAGCAAA,inactive: 0.0389
9,AAGCTTTC,inactive: -0.0748
10,TCGACTCA,inactive: 0.0588
11,CAAGCCGG,inactive: 0.00547
12,ACGCCTAT,inactive: -0.0451
13,GAGAGCGC,inactive: -0.205
14,CGCGACCG,inactive: -0.128
15,GAAATTAC,inactive: 0.148
16,GCAGCTAA,inactive: -0.112
17,CGCAGTAA,inactive: -0.025
18,ATCTGCAG,inactive: 0.0615
19,AGTTCGGG,inactive: -0.0886
20,GCATCGTA,inactive: -0.088
21,GCAGTCTA,inactive: 0.0232
22,CAGCTTGC,inactive: -0.0868
23,GCGAACGC,inactive: -0.108
24,CTAGCAGC,inactive: -0.0489
25,TAAGTTCA,inactive: 0.0196

row,Sequence,PBM E-score
1,CACTGTTC,inactive: 0.107
2,ATATACAG,inactive: 0.186
3,ACTAGTTC,inactive: 0.205
4,ACCCCTTG,inactive: -0.145
5,CCAGATTA,inactive: 0.0323
6,ATGTTACA,active: 0.406
7,AAAAGTAC,inactive: 0.155
8,GGTTAGTA,≥ 0.192
9,ACACGGAA,inactive: 0.291
10,CGGGCAAA,inactive: -0.0392
11,AGGCTTTA,inactive: -0.0555
12,ATCCTTAC,inactive: 0.0786
13,ATAGATGA,≥ 0.0985
14,CAGAGCCA,inactive: -0.133
15,ATCGATAA,inactive: 0.205
16,ACCCGTGG,inactive: -0.246
17,CTCGACAA,inactive: 0.174
18,GTTTTGGA,≥ 0.158
19,AACCTACG,inactive: 0.0502
20,CAATATGG,inactive: 0.101
21,CGTAAGAG,inactive: 0.0163
22,GCTAAGAA,inactive: -0.0875
23,ACCATACA,≥ 0.204
24,TATGGAGA,inactive: -0.0233
25,CCTGAATC,inactive: -0.00571

row,Sequence,PBM E-score
1,GAATGATC,inactive: 0.0856
2,ACGTACCG,inactive: -0.0209
3,CGTTCGTA,inactive: 0.068
4,AGGTACCT,inactive: -0.0585
5,GCTATAAA,inactive: 0.105
6,CTTAGCAC,inactive: -0.0372
7,GTTGTTAA,active: 0.349
8,AGCCGGCT,inactive: -0.209
9,CTTAGCCC,inactive: -0.0843
10,AGGATCTG,inactive: 0.0245
11,AGTTAGTA,inactive: 0.0941
12,ACTGCTAC,inactive: 0.142
13,GACGAAAA,inactive: 0.0444
14,CGTTAGCA,inactive: 0.0587
15,GGTTTCCA,inactive: -0.0201
16,AGCATCGG,inactive: -0.0375
17,CCCTAGAC,inactive: -0.148
18,AGTCCCTG,inactive: -0.0879
19,AATGTAGG,inactive: 0.116
20,CGCTGTTC,inactive: 0.0888
21,CTGTTTGA,inactive: 0.188
22,GACTTCGC,inactive: -0.121
23,AGCTGTGG,inactive: -0.0855
24,CCTAAACG,inactive: -0.104
25,GCTCCCTA,inactive: -0.203

row,Sequence,PBM E-score
1,GCTCGGAA,inactive: -0.114
2,GTAAAAAC,inactive: 0.232
3,GCGCGAAA,inactive: -0.0661
4,ACCGAACG,inactive: -0.0785
5,AGGCTACG,inactive: -0.15
6,AGTTTTAA,inactive: 0.0261
7,CCTGTGGC,inactive: -0.185
8,AAGCCTGG,inactive: -0.169
9,ATGGATCA,inactive: 0.0862
10,AACAGGCT,inactive: 0.114
11,CACAAGAC,inactive: 0.0913
12,CATATCCA,inactive: 0.0717
13,CTGTCCGA,inactive: 0.0437
14,CAAATCCC,inactive: -0.163
15,TTGGCCAA,inactive: -0.162
16,AGGCCGAC,inactive: -0.193
17,AGCACAGC,inactive: -0.0135
18,AAGAGTAT,inactive: 0.0151
19,TCGCTAGA,inactive: -0.0921
20,AAGGTTCA,inactive: -0.0326
21,TGGCTTAA,inactive: -0.00623
22,CAGAACAC,inactive: 0.215
23,TAACTCTA,inactive: -0.0432
24,GCGCTAGA,inactive: -0.0513
25,AGCACTGC,inactive: -0.152

row,Sequence,PBM E-score
1,AAGTCAGC,inactive: 0.0195
2,AATTTCGG,inactive: -0.109
3,ACTGTCCT,inactive: 0.0573
4,AAATTTTG,inactive: 0.0517
5,AATACCAC,inactive: 0.106
6,ATTGCCAG,inactive: -0.0611
7,ATAGTACC,inactive: 0.134
8,GCATAAGA,inactive: 0.00689
9,CTCGGCTA,inactive: -0.0955
10,CTCTGGAC,inactive: -0.0261
11,ATTTGGCG,inactive: -0.0922
12,AGACTCGA,inactive: 0.00039
13,GGTACCAC,inactive: 0.0349
14,ATGCGGAC,inactive: -0.0523
15,CGTCAATA,inactive: -0.0207
16,ACAGTGAC,inactive: 0.0286
17,CATCGGCG,inactive: -0.0491
18,TTCGCCAA,inactive: -0.129
19,CTGGTACC,inactive: 0.0519
20,GCTTCTCC,inactive: -0.21
21,ATAGCGCG,inactive: -0.0022
22,ACTCTGCG,inactive: -0.03
23,CCGCCACC,inactive: -0.196
24,ACACTCTG,inactive: 0.101
